Data on six molecules can be found in the supplement of paper PMC11383711.

B1: AG11-3C06 (protein)
chain 1: VQLVESGGVVVQPGGSLNLSCAASGFTFDDYAMHWVRQGPGKGLEWVSLISWDGGSRYYADSVKGRFTISRDNSKNSLYLEMNSLRTEDTALYYCAKDLGSSWYQLGEKAFDSWGQGTLVTVSS
chain 2: IVMTQSPSSLSASVGDRVTITCQASHDISHYLNWYQQKPGRAPKLLIYDASNLATGVPSRFSGSGSGTDFTFTISTLQPEDIATYFCQHYDHLPQITFGPGTKVEIK
B2: antibody 3G04 (protein)
chain 1: EVQLVESGGGLVKPGGSLRLSCAASGFILSDYYMSWIRQAPGKGLEWISYISNSGSSIYNADSVKGRLTISRDSAKNSVFLELNSLRAEDTAVYYCARFPRFGSGSPYQNDAFDIWGQGTMVTVSS
chain 2: DIQMTQSPSSLSASVGDRVSITCRAGRNINNYLNWYQQPPGKAPKLLIFSAVTLQSGVPSRFSGSGSGTEFSLTINSLQPEDSATYYCQQTYGNPTFGQGTKVEIK
B3: W85-1E04 (protein)
chain 1: EVQLVESGGGVVQPGGSLRLSCAASGFTFGDYAMHWVRQPPGKGLEWVSLITGDGGSTKYADSVKGRFTISRDNSKNSLSLEMNSLRTEDSALYYCAKDIVSVVAAVDYWGQGARVTVSS
chain 2: QSALTQPASVSGSPGQSITISCTGTSSDVGCYNYVSWYQQHPGKAPKLMIYDVNNRPSGVSDRFSGSKSGNTASLTISGLQAEDEADFYCSSYTVSSTLVFGSGTKVTVL
B4: C05 (protein)
chain 1: QVQLQESGGGLVQPGESLRLSCVGSGSSFGESTLSYYAVSWVRQAPGKGLEWLSIINAGGGDIDYADSVEGRFTISRDNSKETLYLQMTNLRVEDTGVYYCAKHMSMQQVVSAGWERADLVGDAFDVWGQGTLVTVS
chain 2: DIQLTQSPSSLSASVGDRVTLTCQASQDIRKFLNWYQQKPGKGPKLLIYDASNLQRGVPSRFSGVDLGQISLSSSVACSLKDVGTYYCQQYDGLPFTFGGGTKLEIK
B5: AG10-3C01 (protein)
chain 1: VQLLESGGDLIQPGGSLRLSCAASGFAFGRYAMGWVRQAPGKGLEWVSSISGGFGVFGVTYYADSVKGRFTISRDNSKNTLYLQMNSLRAEDTAIYYCVKDFTPPGTWGWRPGYCDYWGQGTLVTVSS
chain 2: EIVLTQSPGTLSLSPGERATLSCRASQSVTSNSLAWYQQRPGQAPRLLIYGASSRATGIPDRFSGSGSGTDFTLTITRMDPEDFAVYHCHHYGSSTGTFGQGTKVEIK
B6: 01.f.01 (protein)
chain 1: EVQLLESGGGVVQPGGSLRLSCGATGFALRDYGIHWVRQAPGQGLEWVAFTRHDGTHKDYIDSVKGRFTISRDNSKNTLYLQMNRLRVEDTAIYYCAKVGYQLLYSGAFHIWGQGTMVSVS
chain 2: DIVMTQSPVSLPVTPGEPASISCRSSQSLLHTSEYNYLDWYLQKPGQSPQLLIYLGSHRASGVPDRFSGSGSGTDFTLKISRVEAEDVGVYYCMQALQTPQTFGQGTKLEIK

Some of the results follow. Binding of human antibodies (heavy:light variable regions, tested as scFv in one mRNA-display pool) to influenza hemagglutinin, with or without the stem antibody CR9114 bound first. Score = (mean enrichment − median) / interquartile range of that screen; higher = more enriched, 0 = typical non-binder. Active = above the paper's cut-off per screen: stems 28; unblocked H1 Solomon Islands 5, H1 Michigan 3, H3 5, H5 19, H7 2.85, both B 5; blocked 9, 7, H5 10, H7 10, B Phuket 10, B Lee 11.5. Scores are scaled within each screen and are no affinities; replicates correlate at about 0.6 to 0.9, and antibodies rare in the pool are noisier.

One assay has as its target Influenza A H1N1 A/Michigan/45/2015 hemagglutinin ectodomain. Description: mRNA display binding score; higher = more enriched on the antigen. Particulars: antigen blocked with: 2 µM CR9114 IgG. The protocol:
(§1)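 A pool of natively paired antibodies, displayed as scFv on mRNA, was selected once on antigen-coated beads and sequenced before and after; two replicates.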
Consider B1, for which the “mRNA display binding score” value was inactive: 0.0682.

Consider B2, for which the “mRNA display binding score” value was inactive: 1.21.

On to B3, for which the “mRNA display binding score” value is inactive: -0.0745.

As to B4, the “mRNA display binding score” value is inactive: 5.03.

Take B5: the “mRNA display binding score” value is inactive: 0.637.

Turning to B6, the “mRNA display binding score” value is inactive: -0.362.

The same assay, now with this note: antigen blocked with: nothing.
Take B1: the “mRNA display binding score” value is active: 6.63.

B2: the “mRNA display binding score” value was inactive: 0.44.

Regarding B3, the “mRNA display binding score” value was inactive: 1.1.

Turning to B4, the “mRNA display binding score” value was inactive: 1.74.

For the molecule B5, the “mRNA display binding score” value was inactive: -0.123.

B6: the “mRNA display binding score” value is inactive: 0.109.

The next assay addresses Influenza A H1N1 A/Solomon Islands/3/2006 hemagglutinin ectodomain. The assay is described as above. Particulars: antigen blocked with: 2 µM CR9114 IgG. The method, then:
as §1
Take B1: the “mRNA display binding score” value was inactive: -0.413.

As for B2, the “mRNA display binding score” value was inactive: -0.215.

On to B3, for which the “mRNA display binding score” value was inactive: -0.297.

On to B4, for which the “mRNA display binding score” value was inactive: -0.376.

Regarding B5, the “mRNA display binding score” value was inactive: 0.361.

Turning to B6, the “mRNA display binding score” value is inactive: 0.393.

The same assay, now with this note: antigen blocked with: nothing.
As to B1, the “mRNA display binding score” value is inactive: 1.71.

On to B2, for which the “mRNA display binding score” value was inactive: 0.839.

Take B3: the “mRNA display binding score” value was inactive: 1.04.

As to B4, the “mRNA display binding score” value is inactive: 1.

Take B5: the “mRNA display binding score” value was inactive: 0.119.

With B6, the “mRNA display binding score” value was inactive: -0.214.

The next assay has as its target Influenza A H3N2 A/Singapore/INFIMH-16-0019/2016 hemagglutinin ectodomain. Described as above. The settings on record: antigen blocked with: nothing. The protocol:
as §1
For the molecule B1, the “mRNA display binding score” value was inactive: 0.242.

For the molecule B2, the “mRNA display binding score” value is inactive: 0.624.

With B3, the “mRNA display binding score” value was inactive: -0.37.

Take B4: the “mRNA display binding score” value was inactive: 0.

For the molecule B5, the “mRNA display binding score” value was inactive: -0.368.

In the case of B6, the “mRNA display binding score” value was inactive: 0.665.

Another assay deals with Influenza A H5N1 A/Qinghai/1A/2005 hemagglutinin ectodomain. The assay is described as above. Particulars: antigen blocked with: 2 µM CR9114 IgG. The method, then: as §1
Regarding B1, the “mRNA display binding score” value was inactive: -0.825.

As for B2, the “mRNA display binding score” value was inactive: 1.52.

Regarding B3, the “mRNA display binding score” value is inactive: 0.00442.

Regarding B4, the “mRNA display binding score” value was inactive: 0.559.

As to B5, the “mRNA display binding score” value was inactive: 0.692.

On to B6, for which the “mRNA display binding score” value is inactive: 0.1.

Staying with this assay, now noted: antigen blocked with: nothing.
B1: the “mRNA display binding score” value was inactive: 1.3.

B2: the “mRNA display binding score” value is inactive: 9.22.

Regarding B3, the “mRNA display binding score” value was inactive: 0.525.

As to B4, the “mRNA display binding score” value was inactive: 0.535.

B5: the “mRNA display binding score” value is inactive: 0.537.

With B6, the “mRNA display binding score” value was inactive: -0.223.

In another assay the target is Influenza A H7N9 A/Shanghai/2/2013 hemagglutinin ectodomain. The description is as above. Particulars: antigen blocked with: 2 µM CR9114 IgG. The protocol:
as §1
For the molecule B1, the “mRNA display binding score” value was inactive: -0.856.

For the molecule B2, the “mRNA display binding score” value was inactive: 0.771.

For the molecule B3, the “mRNA display binding score” value is inactive: -0.816.

In the case of B4, the “mRNA display binding score” value was inactive: 3.64.

Turning to B5, the “mRNA display binding score” value was inactive: 5.85.

Regarding B6, the “mRNA display binding score” value was inactive: 0.294.

The assay is the same for the next values; noted with them: antigen blocked with: nothing.
On to B1, for which the “mRNA display binding score” value was inactive: 1.67.

Turning to B2, the “mRNA display binding score” value is inactive: 0.119.

In the case of B3, the “mRNA display binding score” value is inactive: -0.244.

As to B4, the “mRNA display binding score” value is inactive: 1.45.

Regarding B5, the “mRNA display binding score” value is inactive: 0.426.

In the case of B6, the “mRNA display binding score” value was inactive: 0.229.

The target in the next assay is Influenza B/Lee/1940 hemagglutinin ectodomain. The description is as above. The settings on record: antigen blocked with: 2 µM CR9114 IgG. The protocol: as §1
As for B1, the “mRNA display binding score” value was inactive: -0.0285.

As to B2, the “mRNA display binding score” value was inactive: 1.34.

Take B3: the “mRNA display binding score” value is inactive: 1.91.

In the case of B4, the “mRNA display binding score” value is inactive: 2.66.

In the case of B5, the “mRNA display binding score” value was inactive: 5.39.

Regarding B6, the “mRNA display binding score” value is inactive: 0.0507.

The assay is the same for the next values; noted with them: antigen blocked with: nothing.
Regarding B1, the “mRNA display binding score” value was inactive: 1.75.

As for B2, the “mRNA display binding score” value is active: 136.

For the molecule B3, the “mRNA display binding score” value is inactive: 0.109.

For B4, the “mRNA display binding score” value is inactive: 1.14.

Consider B5, for which the “mRNA display binding score” value was inactive: 3.15.

On to B6, for which the “mRNA display binding score” value is inactive: 0.354.

A further assay has as its target Influenza B/Phuket/3073/2013 hemagglutinin ectodomain. The description is as above. Particulars: antigen blocked with: 2 µM CR9114 IgG. The method, then: as §1
For B1, the “mRNA display binding score” value was inactive: -0.275.

Take B2: the “mRNA display binding score” value was active: 12.7.

Consider B3, for which the “mRNA display binding score” value is inactive: -0.229.

Take B4: the “mRNA display binding score” value was inactive: 0.785.

For B5, the “mRNA display binding score” value is inactive: 0.323.

Consider B6, for which the “mRNA display binding score” value was inactive: -0.172.

Still in this assay, the particulars now being: antigen blocked with: nothing.
For B1, the “mRNA display binding score” value was inactive: 1.4.

On to B2, for which the “mRNA display binding score” value is active: 73.1.

Consider B3, for which the “mRNA display binding score” value was inactive: -0.00737.

With B4, the “mRNA display binding score” value was inactive: 1.64.

Regarding B5, the “mRNA display binding score” value is inactive: 0.427.

On to B6, for which the “mRNA display binding score” value was inactive: 0.248.
